Reference: PubChem BioAssay AID602310 (National Center for Advancing Translational Sciences (NCATS), 2012)
About 310 (0.076%) of roughly 410,000 compounds were called active. The shares of active, inactive and inconclusive entries below differ from those in the screen. The call rests on the fitted dose curve; in most records, active means well fitted curve in the direction sought with a large enough effect; inconclusive means small, poorly fitted or top-dose-only effect; inactive means flat fitted curve, though single readings scatter. Potencies of inconclusive entries are doubtful fits and often do not repeat.

Each compound was assayed against DNA dC->dU-editing enzyme APOBEC-3G (Homo sapiens) (UniProt Q9HC16) (assay: qHTS for Inhibitors of Vif-A3G Interactions: qHTS). Conditions: HeLa A3G-eYFP + Vif (tagged APOBEC3G with the HIV-1 protein that degrades it), YFP fluorescence, overnight; series mostly up to 46.1 µM; activity, negative = active: at the top concentration.
Method in brief: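 Read-out is eYFP fluorescence (Ex 488/Em 500-530) from Vif-expressing HeLa A3G-eYFP cells; more signal means A3G escaped Vif-mediated degradation. Cells plated overnight, compound pinned in, incubated overnight at 37 deg C.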
Further: nearly all actives have a fitted effect of over 60% in size.
On the % scale 0 is the no-effect control and ±100 the full control effect; potency means the concentration at half of the fitted maximal effect; tags describe the fitted curve by direction and shape.
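Wherever activity, negative = active is given: hits raise eYFP signal because A3G escapes Vif-driven loss.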

Chain of UniProt Q9HC16 (Q9HC16 whole entry, looked up): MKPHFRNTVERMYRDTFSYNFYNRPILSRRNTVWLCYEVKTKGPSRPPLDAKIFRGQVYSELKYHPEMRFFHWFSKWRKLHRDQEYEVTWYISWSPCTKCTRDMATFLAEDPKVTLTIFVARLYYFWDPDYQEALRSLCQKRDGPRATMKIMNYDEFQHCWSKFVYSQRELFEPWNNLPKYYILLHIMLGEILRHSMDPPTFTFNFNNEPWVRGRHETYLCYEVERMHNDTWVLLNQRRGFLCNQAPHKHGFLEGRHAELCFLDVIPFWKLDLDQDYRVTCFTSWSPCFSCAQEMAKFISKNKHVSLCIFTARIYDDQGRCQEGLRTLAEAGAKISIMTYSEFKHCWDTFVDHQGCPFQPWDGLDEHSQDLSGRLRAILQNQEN

Structure (SMILES)	Potency	activity, negative = active
O=C(Nc1ccc(Cl)cc1)Nc1ccon1	active: 20 µM	–
COC(=O)/C(=C\Nc1ccc(Cl)cc1Cl)NC(=O)c1ccc(OC)cc1	inconclusive: 2.51 µM [inhibitor, full curve, poor fit]	–
C(=C\c1ccccc1)/C=N/Nc1nc2ccccc2s1	–	inactive: 1.13%
CCOC(=O)C1=C(N)n2c(s/c(=C\c3cccs3)c2=O)=C(C(=O)OCC)C1c1cccs1 (stereo not given)	inconclusive: 2.82 µM [inhibitor, full curve, poor fit]	–
COCCOC(=O)c1[nH]c2c(c1C)C(=O)CC(c1cc(OC)ccc1OC)C2 (stereo not given)	inconclusive: 2.82 µM [inhibitor, full curve, poor fit]	–
O=C(O)CCc1ccc(-c2ccccc2)n1-c1cccc(O)c1	inconclusive: 31.6 µM [inhibitor, partial curve, poor fit]	–
COc1ccccc1N(C(C)=O)C1=C(Cl)C(=O)c2ccccc2C1=O	inconclusive: 6.31 µM [inhibitor, single point]	–
O=C(NC(=C(Cl)Cl)S(=O)(=O)c1ccc(Cl)cc1)c1ccccc1	inconclusive: 3.98 µM [inhibitor, full curve, poor fit]	–
COc1ccc(-c2nc(Cn3c(SCc4ccc(F)cc4)nc4ccncc43)c(C)o2)cc1OC	inconclusive: 28.2 µM [inhibitor, single point]	–
CCOc1cc(Br)cc(/C=C2\SC(=Nc3ccccc3)NC2=O)c1O	inconclusive: 11.2 µM [inhibitor, partial curve, poor fit]	–
N#CC1=C(N)Oc2c(ccc3cccnc23)C1c1ccncc1 (stereo not given)	inconclusive: 15.8 µM [inhibitor, single point]	–
O=[N+]([O-])c1ccc(N2CCN(Cc3ccccc3)CC2)c2c1no[n+]2[O-]	active: 7.94 µM	–
CCN(CC)c1ccc(NC(=O)c2ccccc2Br)cc1S(=O)(=O)Nc1ccccc1OC	–	inactive: -3.58%
C#CCOCCOCCOCCNc1nc(N2CCN(C(=O)CCCCCCCCCCNC(=O)[C@H](CO)n3cc(CCCSC)nn3)CC2)nc(N2CCN(C(=O)CCCCCCCCCCNC(=O)[C@H](CCCN=C(N)N)n3cc(C[C@@H](C)CC)nn3)CC2)n1	inconclusive: 10 µM [inhibitor, partial curve, poor fit]	–
CC(=O)Nc1ccc(C(=O)N/N=C/c2ccccc2OCc2ccccc2)cc1	inconclusive: 28.2 µM [inhibitor, single point]	–
COc1ccc(C(=O)/C=C/c2ccc(O)cc2)cc1	inconclusive: 35.5 µM [inhibitor, single point]	–
Nc1cccc(-n2nnnc2CN2CCOCC2)c1	–	inactive: 2.21%
CCN1/C(=C/c2ccc3cccc(C)c3[n+]2CC)Sc2ccccc21	inconclusive: 0.631 µM [inhibitor, full curve, poor fit]	–
COc1cc(/C=C(/C#N)C(=O)NC(C)c2ccccc2)cc(OC)c1O (stereo not given)	inconclusive: 25.1 µM [inhibitor, single point]	–
CC/C(=N\NC(=O)c1ccc2c(c1)OCO2)c1ccccc1	inconclusive: 35.5 µM [inhibitor, single point]	–
C=CCN1C(=O)[C@@H]2Cc3c([nH]c4ccccc34)C(c3cc(OC)c(OC)c(OC)c3)N2C1=S (stereo not given in full)	inconclusive: 2.51 µM [inhibitor, partial curve, poor fit]	–
O=C(Nc1ccccc1)Nc1ccc(Br)c(Cl)c1	inconclusive: 14.1 µM [inhibitor, single point]	–

Structure (SMILES)	Potency	activity, negative = active
CCOC(=O)NC(=O)CN1C(=O)NC2(CCc3ccccc32)C1=O (stereo not given)	–	inactive: 3.04%
COc1ccc(N=C2NC(=O)/C(=C/c3ccc(O)c(OC)c3)S2)cc1	inconclusive: 22.4 µM [inhibitor, single point]	–
Cc1cc(C)cc(NC(=O)/C=C/c2ccc([N+](=O)[O-])s2)c1	inconclusive: 2.51 µM [inhibitor, full curve, poor fit]	–
COc1ccc2c(c1)-c1c(ssc1=S)C(C)(C)N2S(=O)(=O)c1ccc(C)cc1	inconclusive: 3.55 µM [inhibitor, full curve, poor fit]	–
C=CCNc1nc(NCc2ccc(NC(C)=O)cc2)c2sc(-c3ccccc3)cc2n1	–	inactive: -25%
COc1cccc(Cn2c(-c3nonc3N)nc3ccccc32)c1	inconclusive: 1.41 µM [inhibitor, full curve]	–
Cc1cc2cc3n(c2nn1)N=C(Cl)CC3	inconclusive: 28.2 µM [inhibitor, single point]	–
COC(=O)c1ccc(-n2cc(-c3ccc(OC)cc3)[nH]c2=S)cc1	–	inactive: -0.241%
COc1cc(-c2cnc3c(NC=O)cc(-c4ccc(N5CCN(C)CC5)cc4)cn23)cc(OC)c1OC	inconclusive: 15.8 µM [inhibitor, single point]	–
C#CCN(Cc1ccc(OC)cc1)S(=O)(=O)C=C	inconclusive: 3.16 µM [inhibitor, full curve, poor fit]	–
COc1ccc(S(=O)(=O)Nc2cccc3ccccc23)cc1	inconclusive: 5.62 µM [inhibitor, partial curve]	–
COc1ccc(-c2cc(NC=O)c3ncc(-c4cccc(OC)c4)n3c2)cc1	inconclusive: 1.41 µM [inhibitor, partial curve, poor fit]	–
FC(F)(F)c1ccccc1NC(=S)N/N=C1\CC2CC=CC12 (stereo not given)	inconclusive: 31.6 µM [inhibitor, single point]	–
COc1ccc(OC)c2c(N3CC(C)OC(C)C3)cc(C(F)(F)F)nc12 (stereo not given)	–	inactive: 2.12%
O=C(c1[nH]c(C(F)(F)F)nc1-c1ccccc1)N1CCc2c([nH]c3ccccc23)C1	inconclusive: 5.01 µM [inhibitor, full curve, poor fit]	–
CCCOP(=O)(c1ccccc1)c1ccccc1	inconclusive: 22.4 µM [inhibitor, single point]	–
CC[C@@H]1C(c2ccc(F)cc2)=NN(c2ccc(Br)cc2)[C@H]1C(=O)N1CCOC1=O	inconclusive: 17.8 µM [inhibitor, single point]	–
Cc1cc(O)c(NC(=S)NC(=O)c2ccc(-c3ccc(Cl)cc3)o2)cc1C	–	inactive: -4.62%
O=C(c1cccc([N+](=O)[O-])c1)N1c2ncnn2C2(CCCCC2)[C@@H]2CCCC[C@@H]21	–	inactive: 0.527%
CSc1cccc(-n2cc(-c3ccc4c(c3)OCO4)[nH]c2=O)c1	inconclusive: 3.16 µM [inhibitor, full curve]	–
O=C(CCN1C(=O)/C(=C/c2ccccc2Cl)SC1=S)Nc1ccccc1C(=O)O	inconclusive: 35.5 µM [inhibitor, single point]	–
COc1ccc(NC(=O)C2Cc3c(-c4ccc(Cl)cc4)ccnc3O2)cn1 (stereo not given)	inconclusive: 6.31 µM [inhibitor, partial curve, poor fit]	–

Structure (SMILES)	Potency	activity, negative = active
O=C(Oc1cccc2cccnc12)c1cccc(N2C(=O)C3C4CCC(C4)C3C2=O)c1 (stereo not given)	inconclusive: 25.1 µM [inhibitor, single point]	–
CC1=CC(C)(C)Nc2ccc(OC(=O)CN3C(=O)c4cccc5cccc(c45)C3=O)cc21	inconclusive: 22.4 µM [inhibitor, single point]	–
COc1cc(C2C(C(=O)c3cc4ccccc4o3)=C(O)C(=O)N2CCN2CCOCC2)ccc1OCCC(C)C (stereo not given)	–	inactive: -7.19%
CCc1ccc(-c2nc(CN3CCC(C(=O)NCc4ccc(F)cc4)CC3)c(C)o2)cc1	–	inactive: -2.58%
c1ccc(CSc2nnc(NC3CCCCC3)s2)cc1	–	inactive: -3.63%
O=S(=O)(Nc1nc2ccccc2nc1Nc1cccc(S(=O)(=O)N2CCCCC2)c1)c1ccccc1	inconclusive: 15.8 µM [inhibitor, single point]	–
CC(C)(C)c1ccc(O)c(O)c1	–	inactive: -6.17%
CC(C)(C)/C(O)=C/c1nc2cc(Cl)ccc2oc1=O	inconclusive: 12.6 µM [inhibitor, single point]	–
O=C(N/N=C/c1ccc(Cl)cc1)c1cc(-c2cccnc2)nc2ccccc12	inconclusive: 1.41 µM [inhibitor, full curve, poor fit]	–
O=C(CSc1nnc(C2CC2)n1-c1ccccc1)NCCc1ccccc1	–	inactive: -4.27%
CCOC(=O)c1c(C)sc2c1N(C(=O)CCl)c1cc(Cl)ccc1S2	inconclusive: 35.5 µM [inhibitor, single point]	–
O=C(NCCNCc1ccccc1)c1ccco1	–	inactive: 1.09%
O=C(CCl)Nc1ccccc1C(=O)c1ccccc1	inconclusive: 35.5 µM [inhibitor, single point]	–
COc1ccc(C(=O)Nc2sc3c(c2C#N)CCN(C(C)=O)C3)cc1	active: 10 µM	–
O=C1CC(c2ccccc2)Cc2[nH]c(=O)c(-c3nc(-c4ccc(Cl)c(Cl)c4)cs3)cc21 (stereo not given)	inconclusive: 5.62 µM [inhibitor, single point]	–
Cc1cc(-c2n[nH]c(=S)n2/N=C/c2ccc(Cl)c([N+](=O)[O-])c2)n[nH]1	inconclusive: 31.6 µM [inhibitor, single point]	–
CCOC(=S)SCC(=O)Nc1nc(C)c(C)s1	inconclusive: 35.5 µM [inhibitor, single point]	–
CC1(C(=O)NCCc2ccccc2)Cc2c(-c3ccc4c(c3)OCO4)ccnc2O1 (stereo not given)	inconclusive: 7.08 µM [inhibitor, full curve, poor fit]	–
COc1cc(/C=C/C(=O)/C=C(O)/C=C/c2ccc(O)c(OC)c2)ccc1O	inconclusive: 22.4 µM [inhibitor, single point]	–
COc1ccc(N(Cc2cc(=O)[nH]c3ccccc23)C(=O)CCl)cc1	inconclusive: 35.5 µM [inhibitor, single point]	–
Cc1c(NC(=O)Nc2cccc(C(F)(F)F)c2)sc2nc3n(c(=O)c12)CCC(C)CC3 (stereo not given)	–	inactive: 0.985%
